Values belong to the molecule of their own block, whether it stands above or below them.
Columns and labels:
[1] = target: T1, IP-10 (Homo sapiens, UniProt P02778); experiment: In vitro T cell adhesion to VCAM-1 induced by IP-10 under shear flow; assay type: cell-based; conditions: for Inhibition of chemokine-dependent T cell adhesion: IP-10: 10 μg/ml peptide, T cells on VCAM-1 under shear flow
T1 construct: purchased PeproTech
T1 sequence (P02778 22-98): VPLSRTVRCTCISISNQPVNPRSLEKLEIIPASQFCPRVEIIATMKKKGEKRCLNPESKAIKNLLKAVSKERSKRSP
Method: (§1) 50 ml of blood was added to 10 ml of a solution of Dextran T-500 (6% w/v) in PBS (phosphate buffer saline), and 7 ml of citrate buffer (25 grams citrate, 8 grams citric acid in 500 ml PBS). The solution was incubated for 30 minutes at 25° C. 10 ml of Ficoll 1077 was added to the bottom of the tube. The tube was then centrifuged at 2,000 rotations per minute for 30 minutes at 18° C. (with the brake mode of the centrifuge off). The interphase was collected and washed twice with 8 ml PBS with 5% FCS (fetal calf serum), followed by centrifugation at 1,400 rotations per minute for 5 minutes at 18° C. The cells were re-suspended in PBS with 5% FCS at a concentration less then 10^8 per ml. 2 ml of the cell solution were applied on a poly(methyl methacrylate) nylon wool column which was pre-soaked in PBS-5% FCS, and then incubated for 45 minutes at 25° C. Each column was washed with 8 ml PBS-5% FCS and the cells (T-cells and erythrocytes) were eluted by 50 ml of 5 mM EDTA (ethylenediaminetetraacetic acid) in PBS. A red pellet was obtained by centrifugation at 1,400 rotations per minute for 5 minutes at 4° C. (with the brake on).
In order to perform lysis of the erythrocytes, the red pellet was re-suspended in 5 ml of lysis-buffer (155 mM NH4Cl, 10 mM KHCO3, 0.1 mM EDTA, X0.1 PBS) for 4 minutes, followed by immediate addition of 50 ml of PBS with EDTA. Following centrifugation at 1,400 rotations per minute for 5 minutes at 4° C., the pellet was washed again with 50 ml PBS-EDTA and re-centrifuged under the same conditions. […] The cells were ready for use in experiments after overnight incubation at 37° C. […]
(§2) The plates were then assembled as the lower wall of a parallel wall flow chamber and mounted on the stage of an inverted microscope. […] The number of adherent cells resisting detachment by the elevated shear forces was determined after each interval by analysis of videotaped cell images, and was expressed as the percent of originally settled cells. […]

[2] = target: T2, I-TAC (Homo sapiens, UniProt O14625); experiment: In vitro T cell adhesion to VCAM-1 induced by I-TAC under shear flow; assay type: cell-based; conditions: for Inhibition of chemokine-dependent T cell adhesion: I-TAC: 10 μg/ml peptide, T cells on VCAM-1 under shear flow; for T cell adhesion induced by I-TAC (result in words): T cells on VCAM-1
T2 construct: purchased PeproTech
T2 sequence (O14625 22-94): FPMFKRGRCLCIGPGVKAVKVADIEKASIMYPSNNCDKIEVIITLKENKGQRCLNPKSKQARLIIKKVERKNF
Method: as §1
(§3) In order to perform lysis of the erythrocytes, the red pellet was re-suspended in 5 ml of lysis-buffer (155 mM NH4Cl, 10 mM KHCO3, 0.1 mM EDTA, X0.1 PBS) for 4 minutes, followed by immediate addition of 50 ml of PBS with EDTA. Following centrifugation at 1,400 rotations per minute for 5 minutes at 4° C., the pellet was washed again with 50 ml PBS-EDTA and re-centrifuged under the same conditions. A white pellet was obtained and re-suspended in RPMI medium with 10% FCS, L-glutamine, sodium pyruvate and antibiotics at a concentration of 3×10^6 cells per ml. The cells were incubated for 2 hours at 37° C., followed by collection of the non-adherent cells. The cells were ready for use in experiments after overnight incubation at 37° C.
(§4) 10 μg/ml of human VCAM-1 and 2 μg/ml of a chemokine (intact MIG, IP-10, I-TAC, MCP-1, RANTES, SDF-1 (stromal cell-derived factor-1), BCA-1 (B lymphocyte chemoattractant-1), IL-8 (interleukin-8) or eotaxin, or heat-inactivated SDF-1 as a control) were dissolved in PBS buffered with 20 mM bicarbonate (pH 8.5), and incubated in polystyrene plates overnight at 4° C. Alternatively, 10 μg/ml of the chemokine was used, and the plates were incubated for 30 minutes at room temperature. […]
as §2

[3] = target: T3, MIG (Homo sapiens, UniProt Q07325); experiment: In vitro T cell adhesion to VCAM-1 induced by MIG under shear flow; assay type: cell-based; conditions: for Inhibition of chemokine-dependent T cell adhesion: MIG: 10 μg/ml peptide, T cells on VCAM-1 under shear flow; for T cell adhesion induced by MIG (result in words): T cells on VCAM-1
T3 construct: purchased PeproTech
T3 sequence (Q07325 23-125): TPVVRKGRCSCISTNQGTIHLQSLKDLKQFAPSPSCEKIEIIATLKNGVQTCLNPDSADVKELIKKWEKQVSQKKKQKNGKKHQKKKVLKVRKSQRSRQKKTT
Method: as §1, §3, §4, §2

[4] = target: T4, MCP-1 (Homo sapiens, UniProt P13500); experiment: In vitro T cell adhesion to VCAM-1 induced by MCP-1 under shear flow; assay type: cell-based; conditions: for Inhibition of chemokine-dependent T cell adhesion: MCP-1: 10 μg/ml peptide, T cells on VCAM-1 under shear flow; for T cell adhesion induced by MCP-1 (result in words): T cells on VCAM-1
T4 construct: purchased PeproTech
Method: as §1, §3, §4, §2

[5] = target: T5, RANTES (Homo sapiens, UniProt P13501); experiment: In vitro T cell adhesion to VCAM-1 induced by RANTES under shear flow; assay type: cell-based; conditions: for Inhibition of chemokine-dependent T cell adhesion: RANTES: 10 μg/ml peptide, T cells on VCAM-1 under shear flow; for T cell adhesion induced by RANTES (result in words): T cells on VCAM-1
T5 construct: purchased PeproTech
T5 sequence (P13501 24-91): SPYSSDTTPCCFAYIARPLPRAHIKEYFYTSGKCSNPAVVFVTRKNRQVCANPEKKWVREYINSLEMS
Method: as §1, §3, §4, §2

[6] = target: T6, Eotaxin (Homo sapiens, UniProt P51671); experiment: In vitro T cell adhesion to VCAM-1 induced by eotaxin under shear flow; assay type: cell-based; conditions: for Inhibition of chemokine-dependent T cell adhesion: Eotaxin: 10 μg/ml peptide, T cells on VCAM-1 under shear flow; for T cell adhesion induced by eotaxin (result in words): T cells on VCAM-1
T6 construct: purchased PeproTech
Method: as §1, §3, §4, §2

[7] = target: T7, SDF-1 (Homo sapiens, UniProt P48061); experiment: In vitro T cell adhesion to VCAM-1 induced by SDF-1 under shear flow; assay type: cell-based; conditions: 10 μg/ml peptide; T cells on VCAM-1 under shear flow
T7 construct: purchased PeproTech
Method: (§5) 50 ml of blood was added to 10 ml of a solution of Dextran T-500 (6% w/v) in PBS (phosphate buffer saline), and 7 ml of citrate buffer (25 grams citrate, 8 grams citric acid in 500 ml PBS). The solution was incubated for 30 minutes at 25° C. 10 ml of Ficoll 1077 was added to the bottom of the tube. The tube was then centrifuged at 2,000 rotations per minute for 30 minutes at 18° C. (with the brake mode of the centrifuge off). The interphase was collected and washed twice with 8 ml PBS with 5% FCS (fetal calf serum), followed by centrifugation at 1,400 rotations per minute for 5 minutes at 18° C. The cells were re-suspended in PBS with 5% FCS at a concentration less then 10^8 per ml. […]
(§6) In order to perform lysis of the erythrocytes, the red pellet was re-suspended in 5 ml of lysis-buffer (155 mM NH4Cl, 10 mM KHCO3, 0.1 mM EDTA, X0.1 PBS) for 4 minutes, followed by immediate addition of 50 ml of PBS with EDTA. […] The cells were ready for use in experiments after overnight incubation at 37° C. […]
as §2

[8] = target: T8, BCA-1 (Homo sapiens, UniProt O43927); experiment: In vitro T cell adhesion to VCAM-1 induced by BCA-1 under shear flow; assay type: cell-based; conditions: 10 μg/ml peptide; T cells on VCAM-1 under shear flow
T8 sequence (O43927 23-109): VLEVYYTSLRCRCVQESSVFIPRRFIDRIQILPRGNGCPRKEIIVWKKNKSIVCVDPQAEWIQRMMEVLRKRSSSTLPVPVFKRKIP
Method: as §5, §6, §2

[9] = system: PLP-derived EAE; experiment: Experimental autoimmune encephalomyelitis (EAE) induced with PLP peptide (acute disease); assay type: in vivo, SJL mice; conditions: for average clinical score of PLP-derived EAE / accumulating clinical score of PLP-derived EAE: 50 μg/mouse intravenously, vs control mice; for mice with EAE clinical scores of 0: day 27 of the experiment, 8 of 10 control mice had scores of at least 2
[10] = system: MOG-derived EAE; experiment: Experimental autoimmune encephalomyelitis (EAE) induced with MOG peptide (chronic disease); assay type: in vivo, C57BL/6 mice; conditions: FIG. 7; through day 55; 50 μg/mouse intravenously; vs control mice
[11] = system: delayed type hypersensitivity; experiment: In vivo delayed type hypersensitivity mouse model (mBSA); set-up: species or system C57BL/6 mice; conditions: FIG. 9; for inhibition of delayed type hypersensitivity: 50 μg/mouse intravenously 24 hours before challenge
[12] = system: arthritis; experiment: In vivo mouse induced arthritis model (mBSA), leukocytes in knee cavity by FACS; set-up: species or system mice; conditions: 2 mg/kg on day 11, 24 hours before mBSA challenge, 48 hours after administration

T4 sequence (P13500 24-99): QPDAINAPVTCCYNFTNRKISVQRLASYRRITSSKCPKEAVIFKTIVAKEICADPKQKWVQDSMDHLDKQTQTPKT
T7 sequence (P48061 22-89 limits assumed): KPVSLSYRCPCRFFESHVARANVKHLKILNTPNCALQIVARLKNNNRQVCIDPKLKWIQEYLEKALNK

Inhibition of chemokine-dependent T cell adhesion: IP-10 [1]: − (− = no inhibition)
Inhibition of chemokine-dependent T cell adhesion: I-TAC [2]: ++ (++ = 100% inhibition)
T cell adhesion induced by I-TAC (result in words) [2]: inhibited
Inhibition of chemokine-dependent T cell adhesion: MIG [3]: ++ (++ = 100% inhibition)
T cell adhesion induced by MIG (result in words) [3]: inhibited
Inhibition of chemokine-dependent T cell adhesion: MCP-1 [4]: ++ (++ = 100% inhibition)
T cell adhesion induced by MCP-1 (result in words) [4]: inhibited
Inhibition of chemokine-dependent T cell adhesion: RANTES [5]: ++ (++ = 100% inhibition)
T cell adhesion induced by RANTES (result in words) [5]: inhibited
Inhibition of chemokine-dependent T cell adhesion: Eotaxin [6]: ++ (++ = 100% inhibition)
T cell adhesion induced by eotaxin (result in words) [6]: inhibited
Inhibition of chemokine-dependent T cell adhesion: SDF-1 [7]: − (− = no inhibition)
Inhibition of chemokine-dependent T cell adhesion: BCA-1 [8]: − (− = no inhibition)
B1: BKT-P46-FC: BKT-P46 peptide fused via spacer to the N'-terminus of secreted non-glycosylated human IgG1 Fc (Fc N297A), with IL6 signal peptide (protein)
chain: MNSFSTSAFGPVAFSLGLLLVLPAAFPAPVPPLDYPIPQTVLHHGGGSKGF[omitted - human IgG1 Fc with changes]
modifications: BKT-P46-FC polypeptide
average clinical score of PLP-derived EAE ([9]; FIG. 5A, through day 55): considerably decreased
accumulating clinical score of PLP-derived EAE ([9]; FIG. 5B, through day 55): considerably decreased
average clinical score of PLP-derived EAE ([9]; FIG. 6A, through day 33): decreased
accumulating clinical score of PLP-derived EAE ([9]; FIG. 6B, through day 33): decreased
mice with EAE clinical scores of 0 [9]: 8 of 10
average clinical score of MOG-derived EAE [10]: decreased
inhibition of delayed type hypersensitivity [11]: inhibited

Inhibition of chemokine-dependent T cell adhesion: IP-10 [1]: ++ (++ = 100% inhibition)
T cell adhesion induced by IP-10 (result in words) ([1]; T cells on VCAM-1): inhibited
Inhibition of chemokine-dependent T cell adhesion: I-TAC [2]: ++ (++ = 100% inhibition)
T cell adhesion induced by I-TAC (result in words) [2]: inhibited
Inhibition of chemokine-dependent T cell adhesion: MIG [3]: ++ (++ = 100% inhibition)
T cell adhesion induced by MIG (result in words) [3]: inhibited
Inhibition of chemokine-dependent T cell adhesion: MCP-1 [4]: ++ (++ = 100% inhibition)
T cell adhesion induced by MCP-1 (result in words) [4]: inhibited
Inhibition of chemokine-dependent T cell adhesion: RANTES [5]: ++ (++ = 100% inhibition)
T cell adhesion induced by RANTES (result in words) [5]: inhibited
Inhibition of chemokine-dependent T cell adhesion: Eotaxin [6]: ++ (++ = 100% inhibition)
T cell adhesion induced by eotaxin (result in words) [6]: inhibited
B2: BKT-P2-FC: BKT-P2 peptide fused via spacer to the N'-terminus of secreted non-glycosylated human IgG1 Fc (Fc N297A), with IL6 signal peptide (protein)
chain: MNSFSTSAFGPVAFSLGLLLVLPAAFPAPVPPSIPSHSIHSAKAGGGSKGF[omitted - human IgG1 Fc with changes]
modifications: BKT-P2-FC polypeptide
average clinical score of PLP-derived EAE ([9]; FIG. 6A, through day 33): decreased
accumulating clinical score of PLP-derived EAE ([9]; FIG. 6B, through day 33): decreased
mice with EAE clinical scores of 0 [9]: 9 of 10
average clinical score of MOG-derived EAE [10]: decreased
number of neutrophils in the arthritic knee cavity ([12]; FIG. 8A): considerably reduced
number of monocytes in the arthritic knee cavity ([12]; FIG. 8B): considerably reduced
inhibition of delayed type hypersensitivity [11]: inhibited
relative potency in inhibiting delayed type hypersensitivity ([11]; comparison of the two polypeptides): more potent than BKT-P46-FC
